Experimental data taken from PMC5388433.
Positions count from the first letter of the chain named. No constants are given. Whether binding was seen depends on the method and setting. For some of these results: In cells and extracts the contact can be indirect. Some binding calls cover weakened binding; strength is not graded here. For some of these results: Tags and fused reporters may be left off the sequences shown.

By UniProt entry, the sequences of proteins in these tests, tags left out. Where a name states a change or a piece, a line headed by the entry shows the natural chain unless it says otherwise.
UniProt P45973: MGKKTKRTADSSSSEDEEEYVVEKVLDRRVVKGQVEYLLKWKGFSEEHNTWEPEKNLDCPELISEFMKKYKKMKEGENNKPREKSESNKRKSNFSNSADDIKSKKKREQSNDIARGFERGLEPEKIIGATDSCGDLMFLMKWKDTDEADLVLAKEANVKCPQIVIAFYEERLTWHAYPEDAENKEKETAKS
UniProt P83916: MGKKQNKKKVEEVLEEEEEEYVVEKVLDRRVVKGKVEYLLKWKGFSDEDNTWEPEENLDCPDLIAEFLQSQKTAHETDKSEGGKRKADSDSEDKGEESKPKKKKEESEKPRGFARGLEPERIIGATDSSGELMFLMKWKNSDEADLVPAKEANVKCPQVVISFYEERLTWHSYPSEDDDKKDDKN
UniProt Q13185: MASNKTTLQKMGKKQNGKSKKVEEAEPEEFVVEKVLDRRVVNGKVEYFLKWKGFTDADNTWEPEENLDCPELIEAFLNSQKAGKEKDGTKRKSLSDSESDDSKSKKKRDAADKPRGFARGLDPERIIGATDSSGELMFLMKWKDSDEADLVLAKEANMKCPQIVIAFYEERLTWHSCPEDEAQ

Biological target: T1, FLAG-GFP-tagged KDM2A V801A/L803A (HeLa) (human) (UniProt Q9Y2K7)
T1 sequence: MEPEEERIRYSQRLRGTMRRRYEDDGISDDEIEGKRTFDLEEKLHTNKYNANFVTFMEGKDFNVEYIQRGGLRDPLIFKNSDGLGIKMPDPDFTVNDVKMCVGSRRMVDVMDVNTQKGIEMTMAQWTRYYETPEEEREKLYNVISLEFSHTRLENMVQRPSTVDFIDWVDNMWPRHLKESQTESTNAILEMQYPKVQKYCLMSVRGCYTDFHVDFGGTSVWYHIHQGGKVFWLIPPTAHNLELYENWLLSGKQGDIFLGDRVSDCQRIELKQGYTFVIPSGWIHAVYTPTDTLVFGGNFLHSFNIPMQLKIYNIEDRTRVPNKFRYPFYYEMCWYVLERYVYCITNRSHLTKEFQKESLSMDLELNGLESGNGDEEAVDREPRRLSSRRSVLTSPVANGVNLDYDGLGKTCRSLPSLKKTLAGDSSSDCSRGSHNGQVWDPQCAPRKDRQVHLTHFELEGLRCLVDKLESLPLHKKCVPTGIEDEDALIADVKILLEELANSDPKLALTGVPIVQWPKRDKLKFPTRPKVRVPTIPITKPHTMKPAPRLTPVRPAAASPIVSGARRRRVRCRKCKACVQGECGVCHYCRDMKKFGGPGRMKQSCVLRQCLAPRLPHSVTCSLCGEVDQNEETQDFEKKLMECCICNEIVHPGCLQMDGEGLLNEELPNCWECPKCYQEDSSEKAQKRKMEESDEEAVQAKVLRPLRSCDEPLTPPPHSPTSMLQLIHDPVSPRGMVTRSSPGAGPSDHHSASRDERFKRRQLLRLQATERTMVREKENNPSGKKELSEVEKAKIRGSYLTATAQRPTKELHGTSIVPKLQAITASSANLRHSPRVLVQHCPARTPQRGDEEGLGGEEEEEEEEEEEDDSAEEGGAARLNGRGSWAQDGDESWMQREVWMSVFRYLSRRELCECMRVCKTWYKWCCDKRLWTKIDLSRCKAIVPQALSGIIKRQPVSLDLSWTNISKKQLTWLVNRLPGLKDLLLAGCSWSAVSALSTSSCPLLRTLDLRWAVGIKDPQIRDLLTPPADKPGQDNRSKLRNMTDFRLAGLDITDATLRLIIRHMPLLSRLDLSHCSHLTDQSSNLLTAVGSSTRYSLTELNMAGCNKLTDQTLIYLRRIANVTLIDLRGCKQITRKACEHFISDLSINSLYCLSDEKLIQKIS
Assay: co-IP; FLAG-GFP-KDM2A and FLAG-HP1α co-expressed in HeLa cells; extracts adjusted to 150 mM NaCl; KDM2A precipitated with GFP-Trap beads, 4°C; immunoblot against the FLAG tag

Substance	binding
FLAG-tagged HP1α WT (HeLa) (from UniProt P45973 1-191)	no binding

Biological target: T2, FLAG-GFP-tagged WT KDM2A (HeLa) (human) (UniProt Q9Y2K7)
T2 sequence: T1 sequence with A801V, A803L
Assay: as above

Substance	binding
FLAG-tagged HP1α I165K (HeLa) (from UniProt P45973 1-191)	no binding
FLAG-tagged HP1α V22M (HeLa) (from UniProt P45973 1-191)	binds
FLAG-tagged HP1α W174A (HeLa) (from UniProt P45973 1-191)	no binding
FLAG-tagged HP1α WT (HeLa) (from UniProt P45973 1-191)	binds

Biological target: T3, KDM2A_(543-811) nucleosome recognition module (human) (UniProt Q9Y2K7)
T3 sequence: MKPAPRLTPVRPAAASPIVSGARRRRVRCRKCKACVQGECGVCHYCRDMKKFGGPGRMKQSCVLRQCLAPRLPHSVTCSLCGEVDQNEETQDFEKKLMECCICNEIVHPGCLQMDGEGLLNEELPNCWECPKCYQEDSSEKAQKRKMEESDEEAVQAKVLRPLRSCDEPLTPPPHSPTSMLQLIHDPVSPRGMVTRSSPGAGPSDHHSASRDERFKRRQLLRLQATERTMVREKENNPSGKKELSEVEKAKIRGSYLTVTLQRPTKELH
Assay: SEC; 50 μg of each protein mixed in 50 μl, 15 min at 4°C; Superdex 200 Increase 3.2/300; 50 mM Tris pH7.5, 100 mM NaCl, 5 mM β-mercaptoethanol; fractions on Coomassie-stained gels; both purified

Substance	binding
purified HP1β (from UniProt P83916 1-185)	binds
purified HP1γ (from UniProt Q13185 1-183)	binds

Biological target: T4, FLAG-GFP-tagged WT KDM2A (BHK) (human) (UniProt Q9Y2K7)
T4 sequence: T1 sequence with A801V, A803L
Assay: fluorescent three-hybrid (F3H) assay; BHK cells with a genomic lacO array, triple-transfected; GFP-KDM2A anchored to the array by GBP-LacI; recruitment of mRuby2-HP1 to the lacO spot seen by confocal microscopy

Substance	binding
mRuby2-fused HP1α (WT) (from UniProt P45973 1-191)	binds
mRuby2-fused HP1α I165K (from UniProt P45973 1-191)	no binding
mRuby2-fused HP1α V22M (from UniProt P45973 1-191)	binds
mRuby2-fused HP1α W174A (from UniProt P45973 1-191)	no binding
mRuby2-fused HP1β (from UniProt P83916 1-185)	binds
mRuby2-fused HP1γ (from UniProt Q13185 1-183)	binds

Biological target: T5, KDM2A (endogenous) (human (endogenous in HeLa)) (UniProt Q9Y2K7)
T5 sequence: T1 sequence with A801V, A803L
Assay: co-IP; endogenous KDM2A immunoprecipitated with anti-KDM2A antibody from 1 mg HeLa nuclear extract (soluble and chromatin-bound fractions, Benzonase-treated) in the presence of 50 μg ethidium bromide; Dynabeads Protein G; washes with 150 mM NaCl, 0.1% NP40; immunoblot against HP1 α, β and γ

Substance	binding
HP1α (endogenous) (from UniProt P45973 1-191)	binds
HP1β (endogenous) (from UniProt P83916 1-185)	binds
HP1γ (endogenous) (from UniProt Q13185 1-183)	binds
